# Laboratory results published in the supplement of paper PMC12217912.
# This is one part of the list. Sequences were assembled here from the parent chain. Values near 0.05 are background.
# B1: TEV protease; numbered along this chain (parent)
# chain: MGESLFKGPRDYNPISSSICHLTNESDGHTTSLYGIGFGPFIITNKHLFRRNNGTLVVQSLHGVFKVKDTTTLQQHLVDGRDMIIIRMPKDFPPFPQKLKFREPQREERICLVTTNFQTKSMSSMVSDTSCTFPSGDGIFWKHWIQTKDGQCGSPLVSTRDGFIVGIHSASNFTNTNNYFTSVPKNFMELLTNQEAQQWVSGWRLNADSVLWGGHKVFMVKPEEPFQPVKEATQL
# Variants of: B1
# Test: raw area under fraction-flipped curve 0-4 h after induction (AUC4h, not background-subtracted), DNA-recorder readout of cleavage of the substrate (dimensionless); higher = more cleavage of the substrate by the protease variant
# Details: temperature: 34 °C; time window: 0-4 h after rhamnose induction
# 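Further: Bxb1 expression induced with 0.2% (w/v) L-rhamnose at OD600 near 0.5, cultures sampled hourly, flipped fraction per protease–substrate barcode pair counted by paired-end Illumina sequencing.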
Variant,area with substrate ENLYFDS,area with substrate ENLYFES,area with substrate ENLYFFS,area with substrate ENLYFIS,area with substrate ENLYFKS,area with substrate ENLYFPS,area with substrate ENLYFTS,area with substrate ENLYFGS,area with substrate ENLYFMS,area with substrate ENLYFNS
V200G,0.0597,0.0611,0.0726,0.0628,0.0729,0.0644,0.0375,,,
V200K,0.0626,,,0.0508,,,,,,
G214C,0.078,,0.078,0.0556,,,,0.0585,0.0861,
E3Y,,0.0671,0.0769,0.0512,,0.0626,0.071,,,0.0789
G8I,,0.076,0.0709,,0.0616,,0.0682,,,
L22G,,0.0527,0.0627,0.0323,0.0461,0.0305,0.0223,,0.0416,0.0553
H29F,,0.0428,0.0614,0.0531,0.0683,,,,0.0834,0.0061
G35R,,0.104,,0.0386,,,0.0522,,,0.0482
L56A,,0.0632,0.074,0.0506,,0.0906,,,0.0615,
V58P,,0.0331,,,,0,0.0281,,,
H62K,,0.0743,0.074,0.0639,0.0614,0.06,0.0557,,0.0665,
T72Q,,0.0795,0.0659,0.0748,,0.0552,0.0649,,0.0758,
M88T,,0.0404,,,0.0538,0.0587,,,,
T119I,,0.0637,,0.0473,0.0488,0.0604,,,0.0577,
T119M,,0.0695,0.062,,,0.066,0.0659,,0.0598,0.0618
K120I,,0.0788,0.0646,0.0503,,0.0573,0.0559,0.0651,0.0702,
D128Q,,0.0485,0.0769,0.0563,0.065,0.0663,0.0536,,0.0668,0.0647
P134T,,0.0679,0.0724,0.0447,0.0583,0.0555,0.0587,0.0524,0.0611,0.0663
T176H,,0.0771,0.0687,0.0481,0.0664,0.0535,0.0599,0.0656,0.0826,
Q197Y,,0.0672,0.115,0.0544,0.0698,,,,0.0634,
G202K,,0.074,0.0627,0.0519,,,,,0.0705,
D208T,,0.0606,,0.062,0.0614,0.0719,,0.0544,0.057,0.0575
K216M,,0.0558,0.0719,0.0665,0.0467,,,,0.0531,0.0701
E223Q,,0.0601,,0.0633,0.0597,0.0505,0.0437,,,

Variant,area with substrate ENLYFDS,area with substrate ENLYFES,area with substrate ENLYFFS,area with substrate ENLYFIS,area with substrate ENLYFKS,area with substrate ENLYFPS,area with substrate ENLYFTS,area with substrate ENLYFGS,area with substrate ENLYFMS,area with substrate ENLYFNS
L5R,,,0.0629,,0.0585,,,,,0.0678
G8C,,,0.0526,,,,,,,
F95M,,,0.0565,,,0.0694,,,,
P104A,,,0.0624,0.0579,,0.0795,0.0429,,0.0669,0.061
R106P,,,0.0556,0.08,0.0421,0.0855,0.0747,,0.0657,
I110E,,,0.0626,,,,0.0578,,0.0728,
C152Q,,,0.0778,0.0632,,0.0569,0.0627,,,
G153R,,,0.0528,,,,,,,
R160M,,,0.0662,0.0386,,,,,0.0732,
I167G,,,0.0363,0.0579,,0.0563,,,,
P184K,,,0.0663,0.0663,0.0535,0.0414,0.0465,0.0508,0.0672,
Q234G,,,0.0717,,,0.0535,,,0.0496,
K120T,,,,0.0601,,0.0661,0.0585,0.0615,,
E195Y,,,,0.06,,0.0541,,0.0524,0.0619,
H215A,,,,0.0571,0.0658,0.0557,,0.0527,,0.0612
G8N,,,,0.0563,0.0622,0.0208,0.0581,,,
T119E,,,,0.0552,,,,,0.083,0.0653
G35K,,,,0.0488,0.0502,,,,,
T174A,,,,0.0531,,,,,,0.0918
N186A,,,,0.0531,,0.0482,,,,
S209I,,,,0.0302,,0.0806,,,,0.0659
K216A,,,,0.0529,0.0439,0.0428,0.04,,,
L205V,,,,,0.047,0.0611,,,,
P104K,,,,,,,0.0484,,,0.0548

# Same assay, conditions: temperature: 34 °C; time window: 0-4 h after rhamnose induction
Variant,area with substrate ENLYFVS,area with substrate ENLYFYS,area with substrate ENLYFLS,area with substrate ENLYFRS,area with substrate ENLYFHS,area with substrate ENLYFSS,area with substrate ENLYFWS
E3Y,0.0514,,,,,,
G8I,,0.0714,,,,,
L22G,,,0.0375,0.0267,,,
H29F,,,,0.0595,0.0588,,
G35R,,,0.0399,0.045,0.0448,,
L56A,0.0714,,0.0498,,,,
V58P,,,,0.0354,,,
H62K,0.0502,,,,0.0652,0.0557,
T72Q,0.0388,0.0589,,,,,0.0535
M88T,0.0482,,,0.0581,,,0.0582
T119I,,,,,0.0516,0.0627,0.0518
K120I,0.065,,0.0437,0.0531,0.0377,0.0502,
D128Q,0.0619,0.0628,,0.0703,0.0281,0.0695,0.054
P134T,,0.0655,0.0436,0.0565,,0.0499,0.053
T176H,,,0.0593,,0.0596,0.0661,
Q197Y,,,,0.0586,,,
G202K,,,,,0.0461,,
D208T,0.034,0.0558,0.0544,,,0.0172,0.0614
K216M,,0.0472,,,,,
E223Q,0.0108,,,,,0.0489,

Variant,area with substrate ENLYFVS,area with substrate ENLYFYS,area with substrate ENLYFLS,area with substrate ENLYFRS,area with substrate ENLYFHS,area with substrate ENLYFSS,area with substrate ENLYFWS
L5R,,,,0.0457,,,
G8C,,,,0.0624,,,
P104A,0.0527,0.0421,,0.0582,,0.0546,0.0653
R106P,0.0681,0.0803,,0.0743,0.0701,0.0803,0.0601
G153R,,,0.0498,,,,
R160M,,0.0536,,,,,0.0642
I167G,0.0513,0.0499,,0.0552,0.0656,,
P184K,0.0515,,,0.0664,,,0.054
Q234G,,,,0.0615,,,
K120T,,0.0578,0.0654,,,,
E195Y,,,,,,,0.0577
H215A,0.0562,0.0503,,0.0373,0.0581,0.0915,
G8N,,,,,0.0495,,
T119E,0.0459,,,,0.072,0.0725,0.0455
G35K,0.0267,,,,,,
T174A,,0.0613,,,,0.0562,0.0637
N186A,,0.0445,,,,,
K216A,0.0423,,,0.0895,,,0.048
L205V,,,,0.0969,,,0.0419
P104K,,0.0188,,,,0.0469,
